Data from PubChem BioAssay AID1362 (SRMLSC, 2008).
The other results are listed elsewhere or left out. These are further read-outs of the screen, such as a control signal, another cell line or another target. No call is given for them. Compounds called inactive in the main read-out are mostly missing here.

Assay: growth inhibition of WT strain, primary screen, mitochondrial fusion inhibitor project, WT and mutant strains, chemical genetic (AID 1362); note: tested in S. cerevisiae
Settings: mitochondrial fusion phenotypic screen, at 10 µM

Row | SMILES | inhibition
1 | CCOC(=O)c1cnc(-n2nc(C)cc2C)nc1N(CC)CC | 53.5%
2 | O=C1C(Nc2ccccc2)=C/C(=N/S(=O)(=O)c2cccs2)c2ccccc21 | 93.2%
3 | Cc1cc2c(cc1C)CSC(c1ccccc1OC(=O)C(C)(C)C)SC2 | 7.47%
4 | Cc1ccccc1N1CCN(C(=O)c2ccc(Oc3ccc(C(F)(F)F)cn3)cc2)CC1 | 49.2%
5 | Cc1ccc(C)c(Sc2ccc(NC(=O)CCl)cc2)c1 | 27.8%
6 | O=C(/C=C/c1c[nH]c2ccccc12)c1cccc2ccccc12 | 24.9%
7 | Cc1ccc(C(C(=O)NC2CCCCC2)N(Cc2ccco2)C(=O)Cc2c[nH]c3ccccc23)o1 (centres undefined) | 18.5%
8 | CC(=O)Nc1cccc(-c2csc(Nc3ccc(Cl)cn3)n2)c1 | 43.9%
9 | Fc1cccc(Cn2cc(C(=S)N3CCCCC3)c3ccccc32)c1 | 68%
10 | O=C(CC1CC2CCC1C2)Nc1nc(-c2ccccn2)cs1 (centres undefined) | 63.4%
11 | Cc1ccccc1-c1ccc(C(=O)Nc2cccc(F)c2)o1 | 28.4%
12 | CCn1c(C(=O)OC)cc2c1ccn2-c1ccc(F)cc1 | 37.1%
13 | COCCn1c(SCc2nnc(-c3ccccc3)o2)nc2sc3c(c2c1=O)CCC3 | 33.5%
14 | Cc1cc(C)c2c(c1)/C(=C/C(=O)c1ccc(Br)s1)C(=O)N2 | 70.6%
15 | CC1CC(N(C(=O)c2ccc(Cl)cc2)c2ccccc2)c2ccccc2N1C(=O)c1ccco1 (centres undefined) | 55.2%
16 | O=C(COc1ccc(Cl)cc1)NCCSCc1cccc(Cl)c1 | 45.1%
17 | Cc1onc(-c2ccccc2Cl)c1C(=O)Nc1sc2c(c1C(N)=O)CCC(C)C2 (centres undefined) | 8.11%
18 | CCOc1cccc(Oc2ncccc2C(=O)/C(C#N)=C/N(C)C)c1 | 21.9%
19 | O=C(Nc1ccc(C(O)(C(F)(F)F)C(F)(F)F)cc1)c1ccc(Cl)c([N+](=O)[O-])c1 | 17.8%
20 | CN1/C(=C\C(=O)Nc2ccc(Cl)cc2)C(C)(C)c2ccccc21 | 42.1%
21 | CC1=Nc2ccccc2/C1=C\c1sc(Nc2ccc(C)cc2)nc1O | 14%
22 | O=[N+]([O-])c1cc(Cl)ccc1N1CCN(c2ccccc2O)CC1 | 48.1%
23 | CC1=CCC(C(=O)O)(C(=O)N/N=C/c2cccs2)C(c2ccc([N+](=O)[O-])cc2)C1 (centres undefined) | 60.4%
24 | Cc1ccc(C)c(N2CCN(CCCNC(=O)Cn3cccc3C(=O)c3ccccc3C)CC2)c1 | 48%
25 | Cc1cccc(C)c1NC(=S)Nc1ccc(Cl)c(Cl)c1 | 51.1%
26 | O=C(OCC(=O)N1CCN(C(=O)c2ccco2)CC1)c1cn(-c2ccccc2)nc1-c1ccccc1 | 24.9%
27 | Cc1c(Cl)cccc1Nc1nc(N)nc(CSc2nc3ccccc3s2)n1 | 35.5%
28 | Clc1ccc(-c2nnc(-c3ccccc3)c(N3CCSCC3)n2)cc1 | 35.3%
29 | CC(C)(C)c1ccc(NC(=O)c2ccccc2)c([N+](=O)[O-])c1 | -3.45%
